Enrichment score data for 19 molecules are collected here from the supplement of paper PMC10369915.

This is one part of the list. Cut-off read from the data, not from the text of the source: active = 3.2 or more and inactive = the rest. Only a few entries rise above the background.

B1: MVD_Y131_A128V (peptide)
chain: SSVAGYACLAY
B2: MYH7_Y164_YF (peptide)
chain: DNAFQYMLTDR
B3: MYBPC3_Y340 (peptide)
chain: RIAFQYGVTDL
B4: MYH7_Y1375 (peptide)
chain: QWRTKYETDAI
B5: MYBPC3_Y1043_R1048C (peptide)
chain: VHSGTYQVTVC
B6: MYCT1_Y116_G119S (peptide)
chain: RSRSSYTHSLN
B7: MYH7_Y1852 (peptide)
chain: IKELTYQTEED
B8: MYH7_Y162_Y162C_YF (peptide)
chain: ISDNACQFMLT
B9: MYBPC3_Y548 (peptide)
chain: KKLEVYQSIAD
B10: MYH3_Y1140 (peptide)
chain: KQRSDYARELE
B11: MYH7_Y266 (peptide)
chain: ADIETYLLEKS
B12: MYH3_Y1140_R1137C (peptide)
chain: KQCSDYARELE
B13: MYH7_Y164_Y162C (peptide)
chain: DNACQYMLTDR
B14: MYBPC3_Y548_L545M (peptide)
chain: KKMEVYQSIAD
B15: MVD_Y131_A128V_YF (peptide)
chain: SSVAGYACLAF
B16: MVD_Y131 (peptide)
chain: SSAAGYACLAY
B17: MYD88_Y257 (peptide)
chain: LIPIKYKAMKK
B18: MUTYH_Y494 (peptide)
chain: KVFRVYQGQQP
B19: MXRA5_Y2717 (peptide)
chain: RMETEYGPSVT
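Note: displayed peptides selected on beads carrying the immobilized SH2 domain, with library peptides lacking any tyrosine serving as negative controls.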

The first experiment concerns the target SHP2 C-SH2 domain E139D. The experiment can be described thus: enrichment score (SH2-bound / input frequency) (ratio); bacterial display of known human phosphotyrosine sites (pTyr-Var adds point mutants) read by sequencing; higher = stronger binding; tyrosines were phosphorylated by kinases first. The conditions noted are these: peptide library: pTyr-Var.
In the case of B1, the enrichment score is inactive: 0.506.
On to B2, for which the enrichment score was inactive: 0.841.
With B3, the enrichment score is inactive: 1.07.
Turning to B4, the enrichment score is inactive: 1.14.
As for B5, the enrichment score is inactive: 0.988.
The same measure, in the same setting: as for B6, the figure is inactive: 0.306.
The same measure, in the same setting: as for B7, the figure is inactive: 0.69; as for B8, inactive: 0.694.
Take B9: the enrichment score was inactive: 0.84.
As for B10, the enrichment score is inactive: 0.577.
For B11, the enrichment score was inactive: 0.731.
On the same count and under the same terms, as for B12, the figure is inactive: 0.733.
On to B13, for which the enrichment score was inactive: 0.791.
Take B14: the enrichment score is inactive: 0.87.
Take B15: the enrichment score is inactive: 1.94.
As for B16, the enrichment score was inactive: 0.556.
Turning to B17, the enrichment score was inactive: 0.863.
Turning to B18, the enrichment score is inactive: 0.397.
Still for that read-out and setting: for B19 the value was inactive: 0.581.

The next experiment addresses SHP2 C-SH2 domain wild-type. The experiment is described as above. Particulars: peptide library: pTyr-Var.
With B1, the enrichment score is inactive: 1.13.
For the molecule B2, the enrichment score was inactive: 0.662.
With B3, the enrichment score was inactive: 0.935.
Regarding B4, the enrichment score is inactive: 0.991.
For B5, the enrichment score was inactive: 1.17.
As for B6, the enrichment score was inactive: 0.355.
The same measure, in the same setting: as for B7, the figure is inactive: 0.656; as for B8, inactive: 0.69; as for B9, inactive: 0.88.
Still for that read-out and setting: as for B10, the figure is inactive: 0.615.
B11: the enrichment score was inactive: 0.59.
Consider B12, for which the enrichment score is inactive: 0.594.
Still for that read-out and setting: for B13 the value was inactive: 1.1; for B14, inactive: 1.03.
With B15, the enrichment score was inactive: 2.76.
On to B16, for which the enrichment score was inactive: 1.18.
As to B17, the enrichment score was inactive: 0.6.
As for B18, the enrichment score is inactive: 0.489.
For B19, the enrichment score was inactive: 0.509.

For the next experiment, the target named is SHP2 N-SH2 domain L43F. The experiment is described as above. The conditions noted are these: peptide library: pTyr-Var.
Turning to B1, the enrichment score is inactive: 0.7.
The same measure, in the same setting: as for B2, the figure is inactive: 0.817; as for B3, inactive: 0.97.
Take B4: the enrichment score is inactive: 0.99.
Take B5: the enrichment score is inactive: 0.952.
As to B6, the enrichment score is inactive: 0.343.
For the molecule B7, the enrichment score is inactive: 0.543.
Still for that read-out and setting: as for B8, the figure is inactive: 0.649; as for B9, inactive: 0.904.
Take B10: the enrichment score is inactive: 0.56.
On the same count and under the same terms, as for B11, the figure is inactive: 0.647.
As to B12, the enrichment score was inactive: 0.511.
The same measure, in the same setting: for B13 the value was inactive: 0.668; for B14, inactive: 0.889; for B15, active: 4.49.
Turning to B16, the enrichment score was inactive: 0.84.
Consider B17, for which the enrichment score was inactive: 0.461.
Consider B18, for which the enrichment score is inactive: 0.513.
Consider B19, for which the enrichment score is inactive: 0.624.

The next experiment concerns the target SHP2 N-SH2 domain T42A. The description is as above. The conditions noted are these: peptide library: pTyr-Var.
As to B1, the enrichment score was inactive: 1.52.
Turning to B2, the enrichment score was inactive: 0.666.
Consider B3, for which the enrichment score is inactive: 0.843.
For B4, the enrichment score was inactive: 0.864.
As for B5, the enrichment score was inactive: 0.828.
The same measure, in the same setting: as for B6, the figure is inactive: 0.289.
Take B7: the enrichment score was inactive: 0.56.
Regarding B8, the enrichment score is inactive: 0.422.
The same measure, in the same setting: as for B9, the figure is inactive: 0.696; as for B10, inactive: 0.61; as for B11, inactive: 0.522.
Turning to B12, the enrichment score is inactive: 0.515.
Regarding B13, the enrichment score is inactive: 0.657.
The same measure, in the same setting: for B14 the value was inactive: 0.837; for B15, active: 9.22.
Regarding B16, the enrichment score was inactive: 1.29.
In the case of B17, the enrichment score is inactive: 0.622.
The same measure, in the same setting: for B18 the value was inactive: 0.493; for B19, inactive: 0.38.

For another experiment, the target named is SHP2 N-SH2 domain T52S. Described as above. Particulars: peptide library: pTyr-Var.
As for B1, the enrichment score is inactive: 0.654.
Regarding B2, the enrichment score is inactive: 0.774.
As for B3, the enrichment score was inactive: 0.851.
As for B4, the enrichment score is inactive: 0.799.
The same measure, in the same setting: for B5 the value was inactive: 0.907; for B6, inactive: 0.465; for B7, inactive: 0.606.
Same read-out and setting: as for B8, the figure is inactive: 0.51.
Same read-out and setting: for B9 the value was inactive: 0.875.
As to B10, the enrichment score is inactive: 0.541.
With B11, the enrichment score is inactive: 0.647.
On to B12, for which the enrichment score was inactive: 0.585.
Turning to B13, the enrichment score is inactive: 0.627.
As for B14, the enrichment score was inactive: 1.
For the molecule B15, the enrichment score was active: 4.53.
Same read-out and setting: as for B16, the figure is inactive: 0.783; as for B17, inactive: 0.565.
For the molecule B18, the enrichment score is inactive: 0.521.
Take B19: the enrichment score is inactive: 0.726.

The target in a further experiment is SHP2 N-SH2 domain wild-type. The description is as above. The conditions noted are these: peptide library: pTyr-Var.
Consider B1, for which the enrichment score is inactive: 0.969.
Regarding B2, the enrichment score was inactive: 0.831.
Turning to B3, the enrichment score was inactive: 1.19.
In the case of B4, the enrichment score is inactive: 1.43.
The same measure, in the same setting: for B5 the value was inactive: 1.23; for B6, inactive: 0.363.
As for B7, the enrichment score was inactive: 0.617.
For the molecule B8, the enrichment score was inactive: 0.765.
With B9, the enrichment score was inactive: 0.843.
On the same count and under the same terms, for B10 the value was inactive: 0.73; for B11, inactive: 0.683; for B12, inactive: 0.678.
B13: the enrichment score was inactive: 0.764.
B14: the enrichment score is inactive: 0.92.
In the case of B15, the enrichment score is inactive: 2.42.
With B16, the enrichment score is inactive: 1.05.
The same measure, in the same setting: as for B17, the figure is inactive: 0.915; as for B18, inactive: 0.705; as for B19, inactive: 0.468.
